Test results published in paper PMC12040169 (PLOS Biology, 2025).
The other results are listed elsewhere or left out.

test system: T1, C. trachomatis L2/434/Bu expressing GFP (CTL2-GFP); design: species or system HeLa; C. trachomatis total inclusion area by high-content imaging, normalised to DMSO; conditions: total inclusion area; 28.5 h, 10 µM; inhibitor
T1 construct: L2/434/Bu GFP intracellular growth in HeLa cells
How it was run: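 High-content imaging followed the bulk GFP/resorufin measurement: fixed, Hoechst-stained cells were scored for GFP inclusions and host nuclei per well. Total inclusion area and count served as growth proxies, nuclei number as the viability proxy. MIC calculation matched the bulk assay.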

| Structure (SMILES) | % of control remaining |
| --- | --- |
| CCOc1ccccc1-c1noc(-c2nn(-c3ccc(C)cc3)ccc2=O)n1 [CBK288597] | 79.0204 |
| CCCCCC/C=C/c1cnc2nc(NC(=O)NCC)ccc2c1 [CBK061880] | 63.5237 |
| O=C(O)c1ccc2c(c1)CCN2S(=O)(=O)c1ccc(S(=O)(=O)N2CCOCC2)cc1 [CBK295625] | 113.449 |
| O=C(O)CCN1C(=O)c2ccc(Oc3ccc([N+](=O)[O-])cc3)cc2C1=O [CBK263357] | 115.811 |
| N/C(=N\c1nonc1N)NC(=O)c1ccccc1 [CBK006756] | 75.9508 |
| CC1(C)C[C@H](NC2CCOCC2)[C@@]2(CCC(=O)N3CCOCC3)CC[C@](C)(O)C[C@@H]12 [CBK289041] | 105.53 |
| CNCC(=O)N1c2ccccc2CCc2ccc(NC(=O)OC)cc21 [CBK261285C] | 93.8075 |
| O=C(CCc1ccccc1)NC(c1cccc([N+](=O)[O-])c1)c1c(O)ccc2ccccc12 (stereo not shown) [CBK265278] | 87.8667 |
| CCN(CC)C(=O)CN1CC=C(c2ccc(C)o2)CC1 [CBK283497] | 99.2262 |
| OC(c1cccs1)C1CCN(Cc2cnn(-c3ccccc3)c2)CC1 (stereo not shown) [CBK307290] | 51.0662 |
| CC(C)Oc1ccc(C(=O)C2=C(O)C(=O)N(CCN(C)C)C2c2ccccc2F)cc1 (stereo not shown) [CBK264886] | 112.401 |
| O=C(NCCN1CCOCC1)N1CCN(c2ccccc2)CC1 [CBK155180] | 85.7891 |
| CCn1c(=O)n(CC(=O)NCc2ccc(F)cc2)c2cccnc21 [CBK283901] | 86.5725 |
| O=C(CSc1nnc(-c2cccnc2)n1Cc1ccccc1)Nc1ccc(F)cc1 [CBK267528] | 91.9749 |
| O=C(CN1CCOCC1)Nc1ccc(S(=O)(=O)Nc2cc(Cl)cc(Cl)c2)cc1 [CBK001239] | 80.5483 |
| Nc1ncc(-c2cccc(/C=C/C(=O)O)c2)nc1NCc1ccco1 [CBK063691] | 139.907 |
| OC(COCc1ccc(Cl)cc1)CN1CCN(C(c2ccccc2)c2ccccc2)CC1 (stereo not shown) [CBK074857C] | 89.1701 |
| N#Cc1c2c(c3nncn3c1Nc1ccccc1)CCCC2 [CBK288197] | 100.593 |
| O=S(=O)(NCc1nc(-c2ccccc2)no1)c1ccc(F)cc1 [CBK268198] | 99.7118 |
| Cc1ccc(S(=O)(=O)N2CCN(C(=O)C3CCCCC3C(=O)O)CC2)cc1C (stereo not shown) [CBK286936] | 88.063 |

| Structure (SMILES) | % of control remaining |
| --- | --- |
| O=C(N1CCc2ccc(S(=O)(=O)Nc3ccc(-c4nnn[nH]4)cc3)cc2C1)C(F)(F)F [CBK155437] | 92.4489 |
| O=C(O)c1cc(-c2cccc(O)c2)nc2ccc(Br)cc12 [CBK261777] | 107.64 |
| O=C(Nc1cccc(N2CCNCC2)c1)c1cnc2ccccc2c1 [CBK029415T] | 94.1434 |
| CCNC(=O)N1Cc2nc[nH]c2C[C@H]1C(=O)NCc1ccc(OC)cc1 [CBK288973] | 104.841 |
| Fc1ccc(OCCNC2CCc3[nH]c4ccccc4c3C2)cc1 (stereo not shown) [CBK107791] | 82.9824 |
| O=C(O)[C@H]1CN(C(=O)CCc2ccco2)C[C@@H]1c1ccc(F)cc1 [CBK283722] | 109.837 |
| O=C1c2ccccc2C(=O)N1Cc1nc2ccccc2c(=O)n1CCN1CCOCC1 [CBK268472] | 87.4442 |
| Cc1cc(NC(=O)c2ccco2)nc2c1c(=O)oc1ccccc12 [CBK291124] | 85.0274 |
| N#CCn1c(-c2nonc2N)nc2ccccc21 [CBK050974] | 96.0468 |
| Cc1ccc(OC(C)C(=O)NCCCN2CCOCC2)cc1C (stereo not shown) [CBK268109] | 113.17 |
| COC(=O)c1sccc1S(=O)(=O)n1ccc2ccc(Br)cc21 [CBK003528] | 86.9947 |
| Cc1ccc(S(=O)(=O)N(C)CC(=O)O/N=C(\N)c2cccnc2)cc1 [CBK266717] | 82.9016 |
| CCOCCC(=O)NC1CCCc2nc(N3CCC(CO)CC3)ncc21 (stereo not shown) [CBK306624] | 35.8461 |
| CCOc1ccc(OCC)c(S(=O)(=O)n2nc(C)cc2C)c1 [CBK264024] | 114.437 |
| COCCNC(=O)NCCCn1c(-c2ccncc2)nc2cccnc21 [CBK288581] | 109.18 |
| Cc1cc(C)n(CC(O)CN(Cc2ccco2)CC2CC=CCC2)n1 (stereo not shown) [CBK283159] | 86.7871 |
| CCn1nc2c(c1C(=O)Nc1cccc(CCc3ccncc3)c1)CCCC2 [CBK285561] | 91.1193 |
| Cc1ccc(-c2noc([C@@H]3Cc4[nH]cnc4CN3C(=O)c3cccs3)n2)cc1 [CBK288957] | 112.378 |
| CCC(NC(=O)C(C)n1cc(Cl)cn1)c1ccc(OC)cc1 (stereo not shown) [CBK282029] | 126.966 |
| O=C(O)c1cccc(CSCC(=O)N2CCC(Cc3ccccc3)CC2)c1 [CBK296675] | 119.831 |
